This passage reports binding results from article PMC5605996.

Sequences of proteins named here, by UniProt entry; tags and fusion partners are left off.
UniProt Q9V727: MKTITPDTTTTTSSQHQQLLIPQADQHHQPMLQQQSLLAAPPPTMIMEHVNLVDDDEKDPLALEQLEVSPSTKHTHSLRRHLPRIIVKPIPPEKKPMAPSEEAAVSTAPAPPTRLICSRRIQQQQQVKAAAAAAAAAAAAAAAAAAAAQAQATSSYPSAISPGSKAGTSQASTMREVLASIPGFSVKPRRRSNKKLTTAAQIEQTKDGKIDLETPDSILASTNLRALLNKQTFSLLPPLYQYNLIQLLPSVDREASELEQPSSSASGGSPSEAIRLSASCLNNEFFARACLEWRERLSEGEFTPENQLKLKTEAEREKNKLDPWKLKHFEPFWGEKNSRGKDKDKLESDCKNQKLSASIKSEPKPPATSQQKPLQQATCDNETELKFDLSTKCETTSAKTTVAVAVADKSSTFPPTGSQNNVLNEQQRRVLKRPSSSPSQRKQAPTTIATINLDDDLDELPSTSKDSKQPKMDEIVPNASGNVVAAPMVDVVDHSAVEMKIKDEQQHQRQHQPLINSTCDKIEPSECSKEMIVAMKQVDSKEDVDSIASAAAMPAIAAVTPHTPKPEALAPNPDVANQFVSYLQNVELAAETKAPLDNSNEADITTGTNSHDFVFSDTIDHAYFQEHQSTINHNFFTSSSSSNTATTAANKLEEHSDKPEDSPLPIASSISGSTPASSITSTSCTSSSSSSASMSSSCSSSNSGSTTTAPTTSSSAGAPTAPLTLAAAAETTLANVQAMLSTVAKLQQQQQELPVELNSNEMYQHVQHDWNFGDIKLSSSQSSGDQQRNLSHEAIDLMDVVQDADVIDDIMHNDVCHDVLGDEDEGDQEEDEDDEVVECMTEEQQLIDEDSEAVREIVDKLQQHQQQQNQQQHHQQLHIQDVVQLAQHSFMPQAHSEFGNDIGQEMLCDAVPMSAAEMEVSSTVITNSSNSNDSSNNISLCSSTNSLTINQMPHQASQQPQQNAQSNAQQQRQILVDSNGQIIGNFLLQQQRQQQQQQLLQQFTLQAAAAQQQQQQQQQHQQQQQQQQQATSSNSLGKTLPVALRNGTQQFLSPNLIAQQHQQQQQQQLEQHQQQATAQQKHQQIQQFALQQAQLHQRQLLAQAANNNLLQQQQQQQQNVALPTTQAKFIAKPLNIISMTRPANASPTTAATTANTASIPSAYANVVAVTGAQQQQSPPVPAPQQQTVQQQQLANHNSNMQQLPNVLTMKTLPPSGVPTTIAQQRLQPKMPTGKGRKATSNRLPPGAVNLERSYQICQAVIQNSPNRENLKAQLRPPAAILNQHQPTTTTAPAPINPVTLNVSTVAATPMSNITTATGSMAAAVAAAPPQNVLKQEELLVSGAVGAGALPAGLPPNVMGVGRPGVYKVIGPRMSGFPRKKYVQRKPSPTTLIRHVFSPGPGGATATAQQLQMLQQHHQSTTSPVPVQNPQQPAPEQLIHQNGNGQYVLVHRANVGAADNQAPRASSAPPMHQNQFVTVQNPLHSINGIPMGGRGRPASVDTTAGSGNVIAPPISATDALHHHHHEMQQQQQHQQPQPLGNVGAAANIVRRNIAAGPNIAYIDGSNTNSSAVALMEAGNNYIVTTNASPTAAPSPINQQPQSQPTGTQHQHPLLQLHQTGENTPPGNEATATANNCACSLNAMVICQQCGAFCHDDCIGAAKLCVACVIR

No constants are given. Whether binding was seen depends on the method and setting. Binding seen in cells or lysates may run through a third protein. Some entries that bind do so weakly or less than the wild type.

The target in the test is GST fusion of the SET domain of Enhancer of zeste, GST-E(z)SET (Drosophila) (UniProt P42124). Briefly: pull-down; 1 μg GST-E(z)SET or GST-TrxSET immobilised on GSH-agarose, mixed 2 h at 4 °C with pre-cleared reticulocyte lysate holding 35S-Asx or its deletion fragments; washes with 0.6 M NaCl, pH 7.9; SDS-PAGE and autoradiography, densitometry relative to GST; only the target purified.

For “full-length Additional sex combs (Asx), 35S-methionine-labelled, in vitro translated, A(1-1669) (from UniProt Q9V727 1-1669)”, the binding entry is on record as “binds”.
